The supplement of paper PMC8728848
The other results are listed elsewhere or left out.

Tests used:
Test in all cases: glycan array binding signal (z-score within array); higher = stronger binding
Conditions in all cases: glycan notation: IUPAC condensed, linker removed
Gal(b1-3)GalNAc(b1-3)Gal = target: Gal(b1-3)GalNAc(b1-3)Gal
How it was run: (§1)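 The Consortium for Functional Glycomics database supplied 3228 glycan arrays, of which those lacking an available protein sequence were dropped. The binding signal, a within-array Z-score, was averaged across arrays of the same protein sequence and across linkers. Negative scores can be read as non-binding.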

[1] = target: Gal(b1-3)GalNAc(b1-3)Gal(a1-4)Gal(b1-4)Glc
How it was run: as §1

[2] = target: Gal(b1-3)GalNAc(b1-4)Gal(b1-4)Glc
How it was run: as §1

[3] = target: Gal(b1-3)GalNAc(b1-4)[Neu5Ac(a2-3)]Gal(b1-4)Glc
How it was run: as §1

Gal(b1-3)GlcNAc = target: Gal(b1-3)GlcNAc
How it was run: as §1

[4] = target: Gal(b1-3)GlcNAc(a1-3)Gal(b1-4)GlcNAc
How it was run: as §1

[5] = target: Gal(b1-3)GlcNAc(a1-6)Gal(b1-4)GlcNAc
How it was run: as §1

Gal(b1-3)GlcNAc(b1-2)Man = target: Gal(b1-3)GlcNAc(b1-2)Man
How it was run: as §1

[6] = target: Gal(b1-3)GlcNAc(b1-2)Man(a1-3)[Gal(b1-3)GlcNAc(b1-2)Man(a1-6)]Man(b1-4)GlcNAc(b1-4)GlcNAc
How it was run: as §1

[7] = target: Gal(b1-3)GlcNAc(b1-2)Man(a1-3)[Gal(b1-3)GlcNAc(b1-2)Man(a1-6)]Man(b1-4)GlcNAc(b1-4)[Fuc(a1-6)]GlcNAc
How it was run: as §1

[8] = target: Gal(b1-3)GlcNAc(b1-2)Man(a1-3)[GlcNAc(b1-4)][Gal(b1-3)GlcNAc(b1-2)Man(a1-6)]Man(b1-4)GlcNAc(b1-4)GlcNAc
How it was run: as §1

[9] = target: Gal(b1-3)GlcNAc(b1-2)[Gal(b1-3)GlcNAc(b1-6)]Man(a1-6)[Gal(b1-3)GlcNAc(b1-2)Man(a1-3)]Man(b1-4)GlcNAc(b1-4)GlcNAc
How it was run: as §1

[10] = target: Gal(b1-3)GlcNAc(b1-3)Gal(b1-3)GlcNAc
How it was run: as §1

[11] = target: Gal(b1-3)GlcNAc(b1-3)Gal(b1-4)Glc
How it was run: as §1

[12] = target: Gal(b1-3)GlcNAc(b1-3)Gal(b1-4)GlcNAc
How it was run: as §1

[13] = target: Gal(b1-3)GlcNAc(b1-3)Gal(b1-4)GlcNAc(b1-2)Man(a1-3)[Gal(b1-3)GlcNAc(b1-3)Gal(b1-4)GlcNAc(b1-2)Man(a1-6)]Man(b1-4)GlcNAc(b1-4)GlcNAc
How it was run: as §1

[14] = target: Gal(b1-3)GlcNAc(b1-3)Gal(b1-4)GlcNAc(b1-2)[Gal(b1-3)GlcNAc(b1-3)Gal(b1-4)GlcNAc(b1-6)]Man(a1-6)[Gal(b1-3)GlcNAc(b1-3)Gal(b1-4)GlcNAc(b1-2)Man(a1-3)]Man(b1-4)GlcNAc(b1-4)[Fuc(a1-6)]GlcNAc
How it was run: as §1

[15] = target: Gal(b1-3)GlcNAc(b1-3)Gal(b1-4)GlcNAc(b1-3)Gal(b1-4)GlcNAc(b1-2)[Gal(b1-3)GlcNAc(b1-3)Gal(b1-4)GlcNAc(b1-3)Gal(b1-4)GlcNAc(b1-6)]Man(a1-6)[Gal(b1-3)GlcNAc(b1-3)Gal(b1-4)GlcNAc(b1-3)Gal(b1-4)GlcNAc(b1-2)Man(a1-3)]Man(b1-4)GlcNAc(b1-4)[Fuc(a1-6)]GlcNAc
How it was run: as §1

[16] = target: Gal(b1-3)GlcNAc(b1-3)Gal(b1-4)GlcNAc(b1-6)[Gal(b1-3)GlcNAc(b1-3)]Gal(b1-4)Glc
How it was run: as §1

[17] = target: Gal(b1-3)GlcNAc(b1-3)Gal(b1-4)[Fuc(a1-3)]GlcNAc
How it was run: as §1

[18] = target: Gal(b1-3)GlcNAc(b1-3)Gal(b1-4)[Fuc(a1-3)]GlcNAc(b1-6)[Gal(b1-3)GlcNAc(b1-3)]Gal(b1-4)Glc
How it was run: as §1

[19] = target: Gal(b1-3)GlcNAc(b1-3)GalNAc
How it was run: as §1

[20] = target: Gal(b1-3)GlcNAc(b1-6)Gal(b1-4)GlcNAc
How it was run: as §1

[21] = target: Gal(b1-3)GlcNAc(b1-6)GalNAc
How it was run: as §1

[22] = target: Gal(b1-3)GlcNAc(b1-6)[Gal(b1-3)]GalNAc
How it was run: as §1

Gal(b1-3)GlcNAc6S = target: Gal(b1-3)GlcNAc6S
How it was run: as §1

[23] = target: Gal(b1-3)[Fuc(a1-4)]GlcNAc
How it was run: as §1

[24] = target: Gal(b1-3)[Fuc(a1-4)]GlcNAc(b1-2)Man
How it was run: as §1

[25] = target: Gal(b1-3)[Fuc(a1-4)]GlcNAc(b1-2)Man(a1-3)[Gal(b1-3)[Fuc(a1-4)]GlcNAc(b1-2)Man(a1-6)]Man(b1-4)GlcNAc(b1-4)[Fuc(a1-6)]GlcNAc
How it was run: as §1

[26] = target: Gal(b1-3)[Fuc(a1-4)]GlcNAc(b1-3)Gal(b1-3)[Fuc(a1-4)]GlcNAc
How it was run: as §1

[27] = target: Gal(b1-3)[Fuc(a1-4)]GlcNAc(b1-3)Gal(b1-4)[Fuc(a1-3)]GlcNAc
How it was run: as §1

[28] = target: Gal(b1-3)[Fuc(a1-4)]GlcNAc(b1-6)GalNAc
How it was run: as §1

[29] = target: Gal(b1-3)[GlcNAc(b1-6)]GalNAc
How it was run: as §1

[30] = target: Gal(b1-3)[Neu5Ac(a2-6)]GalNAc
How it was run: as §1

[31] = target: Gal(b1-3)[Neu5Ac(a2-6)]GlcNAc(b1-4)Gal(b1-4)Glc
How it was run: as §1

[32] = target: Gal(b1-3)[Neu5Ac(b2-6)]GalNAc
How it was run: as §1

Gal(b1-4)Gal = target: Gal(b1-4)Gal
How it was run: as §1

[33] = target: Gal(b1-4)GalNAc(a1-3)[Fuc(a1-2)]Gal(b1-4)GlcNAc
How it was run: as §1

B1: SRA-1 (Homo sapiens), P21757 (protein)
chain: MEQWDHFHNQQEDTDSCSESVKFDARSMTALLPPNPKNSPSLQEKLKSFKAALIALYLLVFAVLIPLIGIVAAQLLKWETKNCSVSSTNANDITQSLTGKGNDSEEEMRFQEVFMEHMSNMEKRIQHILDMEANLMDTEHFQNFSMTTDQRFNDILLQLSTLFSSVQGHGNAIDEISKSLISLNTTLLDLQLNIENLNGKIQENTFKQQEEISKLEERVYNVSAEIMAMKEEQVHLEQEIKGEVKVLNNITNDLRLKDWEHSQTLRNITLIQGPPGPPGEKGDRGPTGESGPRGFPGPIGPPGLKGDRGAIGFPGSRGLPGYAGRPGNSGPKGQKGEKGSGNTLTPFTKVRLVGGSGPHEGRVEILHSGQWGTICDDRWEVRVGQVVCRSLGYPGVQAVHKAAHFGQGTGPIWLNEVFCFGRESSIEECKIRQWGTRACSHSEDAGVTCTL
Gal(b1-3)GalNAc(b1-3)Gal
  glycan array binding signal (z-score): -0.217
[1]
  glycan array binding signal (z-score): -0.308
[2]
  glycan array binding signal (z-score): -0.023
[3]
  glycan array binding signal (z-score): 0.043
Gal(b1-3)GlcNAc
  glycan array binding signal (z-score): -0.526
[4]
  glycan array binding signal (z-score): -0.203
[5]
  glycan array binding signal (z-score): 0.583
Gal(b1-3)GlcNAc(b1-2)Man
  glycan array binding signal (z-score): 0.295
[6]
  glycan array binding signal (z-score): -0.418
[7]
  glycan array binding signal (z-score): 0.296
[8]
  glycan array binding signal (z-score): 0.092
[9]
  glycan array binding signal (z-score): 0.749
[10]
  glycan array binding signal (z-score): -0.283
[11]
  glycan array binding signal (z-score): -0.665
[12]
  glycan array binding signal (z-score): -0.507
[13]
  glycan array binding signal (z-score): -0.061
[14]
  glycan array binding signal (z-score): -0.049
[15]
  glycan array binding signal (z-score): 0.654
[16]
  glycan array binding signal (z-score): -0.037
[17]
  glycan array binding signal (z-score): -0.389
[18]
  glycan array binding signal (z-score): -0.2
[19]
  glycan array binding signal (z-score): -0.184
[20]
  glycan array binding signal (z-score): -0.096
[21]
  glycan array binding signal (z-score): -0.483
[22]
  glycan array binding signal (z-score): 0.088
Gal(b1-3)GlcNAc6S
  glycan array binding signal (z-score): -0.195
[23]
  glycan array binding signal (z-score): 0.065
[24]
  glycan array binding signal (z-score): -0.243
[25]
  glycan array binding signal (z-score): -0.28
[26]
  glycan array binding signal (z-score): -0.113
[27]
  glycan array binding signal (z-score): -0.44
[28]
  glycan array binding signal (z-score): -0.059
[29]
  glycan array binding signal (z-score): -0.048
[30]
  glycan array binding signal (z-score): -0.29
[31]
  glycan array binding signal (z-score): -0.502
[32]
  glycan array binding signal (z-score): -0.296
Gal(b1-4)Gal
  glycan array binding signal (z-score): -0.166
[33]
  glycan array binding signal (z-score): 0.256
